{"source": "the supplement of paper PMC8728848", "binders": {"B1": {"name": "SGC, Q9M345 (protein)", "chain": "QNLNFTYNGFHPPLTDISLQGLATVTPNGLLKLTNTSVQKTGHAFCTERIRFKDSQNGNVSSFSTTFVFAIHSQIPTLSGHGIAFVVAPTLGLPFALPSQYIGLFNISNNGNDTNHIFAVEFDTIQSSEFGDPNDNHVGIDLNGLRSANYSTAGYRDDHDKFQNLSLISRKRIQVWIDYDNRSHRIDVTVAPFDSDKPRKPLVSYVRDLSSILLEDMYVGFSSATGSVLSEHFLVGWSFRLNGEAPMLSLSKLPKLPRFEPRRIS"}}, "assay_in_all_cases": "glycan array binding signal (z-score within array); higher = stronger binding", "details_in_all_cases": "glycan notation: IUPAC condensed, linker removed", "key": {"[1]": {"molecular_target": "Neu5Ac(a2-6)Gal(b1-4)GlcNAc(b1-3)Gal(b1-4)GlcNAc(b1-3)Gal(b1-4)GlcNAc(b1-2)Man(a1-3)[Neu5Ac(a2-6)Gal(b1-4)GlcNAc(b1-3)Gal(b1-4)GlcNAc(b1-3)Gal(b1-4)GlcNAc(b1-2)Man(a1-6)]GalNAc", "how_it_was_run": "(§1)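 Columns mapping to the same glycan were averaged after glycan names were converted to IUPAC-condensed notation. The data come from 3228 arrays in the Consortium for Functional Glycomics database, limited to those with an available protein sequence. Binding is reported as a within-array Z-score averaged across arrays of one protein sequence and across linkers.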"}, "[2]": {"molecular_target": "Neu5Ac(a2-6)Gal(b1-4)GlcNAc(b1-3)Gal(b1-4)GlcNAc(b1-3)GalNAc", "how_it_was_run": "as §1"}, "[3]": {"molecular_target": "Neu5Ac(a2-6)Gal(b1-4)GlcNAc(b1-3)Gal(b1-4)GlcNAc(b1-3)[Neu5Ac(a2-6)Gal(b1-4)GlcNAc(b1-3)Gal(b1-4)GlcNAc(b1-6)]GalNAc", "how_it_was_run": "as §1"}, "[4]": {"molecular_target": "Neu5Ac(a2-6)Gal(b1-4)GlcNAc(b1-3)Gal(b1-4)GlcNAc(b1-6)[Gal(b1-3)]GalNAc", "how_it_was_run": "as §1"}, "[5]": {"molecular_target": "Neu5Ac(a2-6)Gal(b1-4)GlcNAc(b1-3)Gal(b1-4)[Fuc(a1-3)]GlcNAc(b1-3)Gal(b1-4)[Fuc(a1-3)]GlcNAc", "how_it_was_run": "as §1"}, "[6]": {"molecular_target": "Neu5Ac(a2-6)Gal(b1-4)GlcNAc(b1-3)GalNAc", "how_it_was_run": "as §1"}, "[7]": {"molecular_target": "Neu5Ac(a2-6)Gal(b1-4)GlcNAc(b1-3)[Neu5Ac(a2-6)Gal(b1-4)GlcNAc(b1-6)]GalNAc", "how_it_was_run": "as §1"}, "[8]": {"molecular_target": "Neu5Ac(a2-6)Gal(b1-4)GlcNAc(b1-6)GalNAc", "how_it_was_run": "as §1"}, "[9]": {"molecular_target": "Neu5Ac(a2-6)Gal(b1-4)GlcNAc(b1-6)[Gal(b1-3)GlcNAc(b1-3)]Gal(b1-4)Glc", "how_it_was_run": "as §1"}, "[10]": {"molecular_target": "Neu5Ac(a2-6)Gal(b1-4)GlcNAc(b1-6)[Gal(b1-3)]GalNAc", "how_it_was_run": "as §1"}, "[11]": {"molecular_target": "Neu5Ac(a2-6)Gal(b1-4)GlcNAc6S", "how_it_was_run": "as §1"}, "Neu5Ac(a2-6)GalNAc": {"molecular_target": "Neu5Ac(a2-6)GalNAc", "how_it_was_run": "as §1"}, "[12]": {"molecular_target": "Neu5Ac(a2-6)GalNAc(b1-4)GlcNAc", "how_it_was_run": "as §1"}, "[13]": {"molecular_target": "Neu5Ac(a2-6)GalNAc(b1-4)GlcNAc6S", "how_it_was_run": "as §1"}, "[14]": {"molecular_target": "Neu5Ac(a2-6)GlcNAc(b1-4)GlcNAc", "how_it_was_run": "as §1"}, "[15]": {"molecular_target": "Neu5Ac(a2-6)GlcNAc(b1-4)GlcNAc(b1-4)GlcNAc", "how_it_was_run": "as §1"}, "Neu5Ac(a2-8)Neu5Ac": {"molecular_target": "Neu5Ac(a2-8)Neu5Ac", "how_it_was_run": "as §1"}, "[16]": {"molecular_target": "Neu5Ac(a2-8)Neu5Ac(a2-3)Gal(b1-3)GalNAc(b1-4)[Neu5Ac(a2-3)]Gal(b1-4)Glc", "how_it_was_run": "as §1"}, "[17]": {"molecular_target": "Neu5Ac(a2-8)Neu5Ac(a2-3)Gal(b1-3)GalNAc(b1-4)[Neu5Ac(a2-8)Neu5Ac(a2-3)]Gal(b1-4)Glc", "how_it_was_run": "as §1"}, "[18]": {"molecular_target": "Neu5Ac(a2-8)Neu5Ac(a2-3)Gal(b1-4)Glc", "how_it_was_run": "as §1"}, "[19]": {"molecular_target": "Neu5Ac(a2-8)Neu5Ac(a2-3)Gal(b1-4)GlcNAc", "how_it_was_run": "as §1"}, "[20]": {"molecular_target": "Neu5Ac(a2-8)Neu5Ac(a2-3)[Gal(b1-3)GalNAc(b1-4)]Gal(b1-4)Glc", "how_it_was_run": "as §1"}, "[21]": {"molecular_target": "Neu5Ac(a2-8)Neu5Ac(a2-3)[GalNAc(b1-4)]Gal(b1-4)Glc", "how_it_was_run": "as §1"}, "[22]": {"molecular_target": "Neu5Ac(a2-8)Neu5Ac(a2-8)Neu5Ac", "how_it_was_run": "as §1"}, "[23]": {"molecular_target": "Neu5Ac(a2-8)Neu5Ac(a2-8)Neu5Ac(a2-3)Gal(b1-4)Glc", "how_it_was_run": "as §1"}, "[24]": {"molecular_target": "Neu5Ac(a2-8)Neu5Ac(a2-8)Neu5Ac(a2-3)[Gal(b1-3)GalNAc(b1-4)]Gal(b1-4)Glc", "how_it_was_run": "as §1"}, "[25]": {"molecular_target": "Neu5Ac(a2-8)Neu5Ac(a2-8)Neu5Ac(a2-3)[GalNAc(b1-4)]Gal(b1-4)Glc", "how_it_was_run": "as §1"}, "[26]": {"molecular_target": "Neu5Ac(a2-8)Neu5Ac(a2-8)Neu5Ac(a2-8)Neu5Ac(a2-3)[GalNAc(b1-4)]Gal(b1-4)Glc", "how_it_was_run": "as §1"}, "[27]": {"molecular_target": "Neu5Ac(a2-8)Neu5Gc(a2-3)Gal(b1-4)GlcNAc", "how_it_was_run": "as §1"}, "[28]": {"molecular_target": "Neu5Ac(b2-6)Gal(b1-4)GlcNAc", "how_it_was_run": "as §1"}, "Neu5Ac(b2-6)GalNAc": {"molecular_target": "Neu5Ac(b2-6)GalNAc", "how_it_was_run": "as §1"}, "[29]": {"molecular_target": "Neu5Ac9Ac(a2-3)Gal(b1-3)GlcNAc", "how_it_was_run": "as §1"}, "[30]": {"molecular_target": "Neu5Ac9Ac(a2-3)Gal(b1-4)GlcNAc", "how_it_was_run": "as §1"}, "[31]": {"molecular_target": "Neu5Ac9Ac(a2-6)Gal(b1-4)GlcNAc", "how_it_was_run": "as §1"}, "[32]": {"molecular_target": "Neu5Gc(a2-3)Gal(b1-3)GlcNAc", "how_it_was_run": "as §1"}, "[33]": {"molecular_target": "Neu5Gc(a2-3)Gal(b1-3)[Fuc(a1-4)]GlcNAc", "how_it_was_run": "as §1"}, "Neu5Gc(a2-3)Gal(b1-4)Glc": {"molecular_target": "Neu5Gc(a2-3)Gal(b1-4)Glc", "how_it_was_run": "as §1"}, "[34]": {"molecular_target": "Neu5Gc(a2-3)Gal(b1-4)GlcNAc", "how_it_was_run": "as §1"}, "[35]": {"molecular_target": "Neu5Gc(a2-3)Gal(b1-4)GlcNAc(b1-3)Gal(b1-4)GlcNAc(b1-2)Man(a1-3)[Neu5Gc(a2-3)Gal(b1-4)GlcNAc(b1-3)Gal(b1-4)GlcNAc(b1-2)Man(a1-6)]Man(b1-4)GlcNAc(b1-4)GlcNAc", "how_it_was_run": "as §1"}, "[36]": {"molecular_target": "Neu5Gc(a2-3)Gal(b1-4)[Fuc(a1-3)]GlcNAc", "how_it_was_run": "as §1"}, "[37]": {"molecular_target": "Neu5Gc(a2-6)Gal(b1-4)GlcNAc", "how_it_was_run": "as §1"}, "Neu5Gc(a2-6)GalNAc": {"molecular_target": "Neu5Gc(a2-6)GalNAc", "how_it_was_run": "as §1"}, "[38]": {"molecular_target": "Neu5Gc(a2-8)Neu5Ac(a2-3)Gal(b1-4)GlcNAc", "how_it_was_run": "as §1"}, "[39]": {"molecular_target": "Neu5Gc(a2-8)Neu5Gc(a2-3)Gal(b1-4)GlcNAc", "how_it_was_run": "as §1"}, "[40]": {"molecular_target": "Neu5Gc(a2-8)Neu5Gc(a2-3)Gal(b1-4)GlcNAc(b1-3)Gal(b1-4)GlcNAc", "how_it_was_run": "as §1"}, "[41]": {"molecular_target": "Neu5Gc(a2-8)Neu5Gc(a2-6)Gal(b1-4)GlcNAc", "how_it_was_run": "as §1"}, "[42]": {"molecular_target": "Neu5Gc(b2-6)Gal(b1-4)GlcNAc", "how_it_was_run": "as §1"}}, "note": "Some of the results follow.", "data": [{"binder": "B1", "values": [{"measurement": "glycan array binding signal (z-score)", "setting": "[1]", "value": 0.658}, {"measurement": "glycan array binding signal (z-score)", "setting": "[2]", "value": -0.38}, {"measurement": "glycan array binding signal (z-score)", "setting": "[3]", "value": 0.306}, {"measurement": "glycan array binding signal (z-score)", "setting": "[4]", "value": -0.29}, {"measurement": "glycan array binding signal (z-score)", "setting": "[5]", "value": 0.418}, {"measurement": "glycan array binding signal (z-score)", "setting": "[6]", "value": 1.1}, {"measurement": "glycan array binding signal (z-score)", "setting": "[7]", "value": -0.288}, {"measurement": "glycan array binding signal (z-score)", "setting": "[8]", "value": -0.25}, {"measurement": "glycan array binding signal (z-score)", "setting": "[9]", "value": -0.334}, {"measurement": "glycan array binding signal (z-score)", "setting": "[10]", "value": -0.264}, {"measurement": "glycan array binding signal (z-score)", "setting": "[11]", "value": -0.37}, {"measurement": "glycan array binding signal (z-score)", "setting": "Neu5Ac(a2-6)GalNAc", "value": -0.34}, {"measurement": "glycan array binding signal (z-score)", "setting": "[12]", "value": -0.371}, {"measurement": "glycan array binding signal (z-score)", "setting": "[13]", "value": -0.379}, {"measurement": "glycan array binding signal (z-score)", "setting": "[14]", "value": -0.328}, {"measurement": "glycan array binding signal (z-score)", "setting": "[15]", "value": -0.43}, {"measurement": "glycan array binding signal (z-score)", "setting": "Neu5Ac(a2-8)Neu5Ac", "value": -0.356}, {"measurement": "glycan array binding signal (z-score)", "setting": "[16]", "value": -0.321}, {"measurement": "glycan array binding signal (z-score)", "setting": "[17]", "value": 0.174}, {"measurement": "glycan array binding signal (z-score)", "setting": "[18]", "value": -0.403}, {"measurement": "glycan array binding signal (z-score)", "setting": "[19]", "value": -0.396}, {"measurement": "glycan array binding signal (z-score)", "setting": "[20]", "value": -0.317}, {"measurement": "glycan array binding signal (z-score)", "setting": "[21]", "value": 1.7}, {"measurement": "glycan array binding signal (z-score)", "setting": "[22]", "value": -0.347}, {"measurement": "glycan array binding signal (z-score)", "setting": "[23]", "value": -0.307}, {"measurement": "glycan array binding signal (z-score)", "setting": "[24]", "value": -0.34}, {"measurement": "glycan array binding signal (z-score)", "setting": "[25]", "value": 0.644}, {"measurement": "glycan array binding signal (z-score)", "setting": "[26]", "value": -0.284}, {"measurement": "glycan array binding signal (z-score)", "setting": "[27]", "value": -0.312}, {"measurement": "glycan array binding signal (z-score)", "setting": "[28]", "value": -0.252}, {"measurement": "glycan array binding signal (z-score)", "setting": "Neu5Ac(b2-6)GalNAc", "value": -0.286}, {"measurement": "glycan array binding signal (z-score)", "setting": "[29]", "value": -0.385}, {"measurement": "glycan array binding signal (z-score)", "setting": "[30]", "value": -0.34}, {"measurement": "glycan array binding signal (z-score)", "setting": "[31]", "value": -0.363}, {"measurement": "glycan array binding signal (z-score)", "setting": "[32]", "value": -0.39}, {"measurement": "glycan array binding signal (z-score)", "setting": "[33]", "value": -0.349}, {"measurement": "glycan array binding signal (z-score)", "setting": "Neu5Gc(a2-3)Gal(b1-4)Glc", "value": -0.356}, {"measurement": "glycan array binding signal (z-score)", "setting": "[34]", "value": -0.413}, {"measurement": "glycan array binding signal (z-score)", "setting": "[35]", "value": -0.369}, {"measurement": "glycan array binding signal (z-score)", "setting": "[36]", "value": -0.374}, {"measurement": "glycan array binding signal (z-score)", "setting": "[37]", "value": -0.362}, {"measurement": "glycan array binding signal (z-score)", "setting": "Neu5Gc(a2-6)GalNAc", "value": -0.321}, {"measurement": "glycan array binding signal (z-score)", "setting": "[38]", "value": -0.365}, {"measurement": "glycan array binding signal (z-score)", "setting": "[39]", "value": -0.369}, {"measurement": "glycan array binding signal (z-score)", "setting": "[40]", "value": -0.357}, {"measurement": "glycan array binding signal (z-score)", "setting": "[41]", "value": -0.41}, {"measurement": "glycan array binding signal (z-score)", "setting": "[42]", "value": -0.304}]}]}
